The record followed here is the BET-seq Pho4 binding data (Le et al. 2018).

The list shows a part of the results. Values were computed here from the reads of four pooled replicates and scatter widely.

The assay addresses T1, Pho4 (S. cerevisiae) (UniProt P07270).
T1 sequence: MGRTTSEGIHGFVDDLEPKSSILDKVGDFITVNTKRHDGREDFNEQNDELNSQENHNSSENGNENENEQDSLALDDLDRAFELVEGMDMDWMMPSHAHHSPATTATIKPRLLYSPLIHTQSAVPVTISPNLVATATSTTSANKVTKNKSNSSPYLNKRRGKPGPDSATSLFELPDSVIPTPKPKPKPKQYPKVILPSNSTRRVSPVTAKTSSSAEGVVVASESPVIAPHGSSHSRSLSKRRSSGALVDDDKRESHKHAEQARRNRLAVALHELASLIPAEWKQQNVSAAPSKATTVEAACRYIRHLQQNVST
The assay can be described thus: relative binding free energy (BET-seq); higher = weaker binding. The settings on record: reference: library average.
With TGAATCACGTGTTGTT, the “relative binding free energy” value turned out to be 0.17 kcal/mol.
As to TAATGCACGTGACAGG, the “relative binding free energy” value turned out to be 0.07 kcal/mol.
Consider ATCGGCACGTGGGGGC, for which the “relative binding free energy” value was -0.13 kcal/mol.
In the case of GTGGTCACGTGGGTTG, the “relative binding free energy” value came out at 0.11 kcal/mol.
Take TTAATCACGTGCGGGA: the “relative binding free energy” value was found to be 0.02 kcal/mol.
On to GGAGCCACGTGGTAGT, for which the “relative binding free energy” value is -0.02 kcal/mol.
In the case of TTGGTCACGTGATATC, the “relative binding free energy” value turned out to be 0.14 kcal/mol.
Regarding GGGGACACGTGTATGG, the “relative binding free energy” value amounted to 0.06 kcal/mol.
Take AGTGTCACGTGCGGAT: the “relative binding free energy” value was 0.02 kcal/mol.
On to CGGTTCACGTGTCTGG, for which the “relative binding free energy” value stood at 0.28 kcal/mol.
For the sequence GGGATCACGTGGGACA, the “relative binding free energy” value is 0.04 kcal/mol.
Regarding GGAGTCACGTGTAGGC, the “relative binding free energy” value is -0.05 kcal/mol.
On to GAGTCCACGTGTTAGG, for which the “relative binding free energy” value amounted to 0.28 kcal/mol.
To GCATGCACGTGTGTAG belongs 0.06 kcal/mol; to TTGGCCACGTGTAAAG, 0.17 kcal/mol.
Regarding GTCTGCACGTGGTTGA, the “relative binding free energy” value came out at 0.1 kcal/mol.
On to TTGTGCACGTGTTATT, for which the “relative binding free energy” value was -0.03 kcal/mol.
Take CATTTCACGTGCGGGA: the “relative binding free energy” value was 0.3 kcal/mol.
With GGGTACACGTGCATGT, the “relative binding free energy” value amounted to 0.18 kcal/mol.
On to CGTATCACGTGAAGTA, for which the “relative binding free energy” value was determined as 0.49 kcal/mol.
To ATATGCACGTGTCTAT belongs -0.01 kcal/mol; to CTGTACACGTGGTTTT, 0.18 kcal/mol; to TTTAACACGTGAAGTT, 0.28 kcal/mol.
As to AAGCGCACGTGCGTTT, the “relative binding free energy” value is -0.04 kcal/mol.
As to TATATCACGTGTTGTA, the “relative binding free energy” value was found to be 0.03 kcal/mol.
TTTTGCACGTGGGATA: the “relative binding free energy” value was -0.06 kcal/mol.
To GTTCTCACGTGGGTTG belongs 0.16 kcal/mol; to AACAGCACGTGGGAGG, -0.14 kcal/mol.
To GTGGTCACGTGTAGGC belongs 0.17 kcal/mol; to GAGTACACGTGTTGAG, 0.07 kcal/mol; to TGCGCCACGTGGGAGT, -0.25 kcal/mol.
Take TTTCCCACGTGTTGTT: the “relative binding free energy” value was 0.05 kcal/mol.
For the sequence GATGTCACGTGGGCAT, the “relative binding free energy” value was -0.03 kcal/mol.
For TATTTCACGTGTGGTG, the “relative binding free energy” value came out at 0.34 kcal/mol.
For AGGGACACGTGGTTCG, the “relative binding free energy” value was -0.02 kcal/mol.
In the case of GGGGGCACGTGGGAGT, the “relative binding free energy” value was -0.11 kcal/mol.
For AGAGCCACGTGGTGTT, the “relative binding free energy” value is -0.16 kcal/mol.
To TTTTTCACGTGTTTCA belongs 0.39 kcal/mol; to TCGGTCACGTGGAGGC, 0.21 kcal/mol; to ATCAGCACGTGTGGTA, -0.04 kcal/mol.
To TTGGGCACGTGTAACT belongs 0.17 kcal/mol.
To ACGTTCACGTGAGGGT belongs 0.34 kcal/mol.
For the sequence TCTTTCACGTGGGCGT, the “relative binding free energy” value worked out at 0.17 kcal/mol.
For the sequence CGGAGCACGTGTTGTG, the “relative binding free energy” value was -0.01 kcal/mol.
In the case of ATTTCCACGTGAGGGA, the “relative binding free energy” value turned out to be 0.31 kcal/mol.
With TATGTCACGTGAGTTG, the “relative binding free energy” value was 0.31 kcal/mol.
To GGGTGCACGTGCATTG belongs 0.08 kcal/mol.
For the sequence TCGATCACGTGGGGAG, the “relative binding free energy” value was 0.08 kcal/mol.
TAAGGCACGTGGGGAC: the “relative binding free energy” value was -0.14 kcal/mol.
As to TGTTGCACGTGGTATG, the “relative binding free energy” value was -0.03 kcal/mol.
GAAGGCACGTGTTTTG: the “relative binding free energy” value came out at 0 kcal/mol.
To TGTTACACGTGGGGAA belongs 0.06 kcal/mol.
Regarding GGTGCCACGTGGGTTC, the “relative binding free energy” value is -0.18 kcal/mol.
Turning to TATCCCACGTGGTGTT, the “relative binding free energy” value is -0.11 kcal/mol.
As to CTCTGCACGTGTTTTT, the “relative binding free energy” value amounted to 0.02 kcal/mol.
With ATAGTCACGTGTGAGT, the “relative binding free energy” value was determined as 0.21 kcal/mol.
As to AGGTACACGTGGGTGC, the “relative binding free energy” value was -0.13 kcal/mol.
As for GTCTGCACGTGGCTGT, the “relative binding free energy” value is 0.02 kcal/mol.
GATTACACGTGGGGAT: the “relative binding free energy” value was determined as 0.01 kcal/mol.
Take TGGAGCACGTGTCATG: the “relative binding free energy” value was -0.13 kcal/mol.
Turning to GGGGACACGTGTGATG, the “relative binding free energy” value amounted to 0.06 kcal/mol.
For GTTGTCACGTGTGTCC, the “relative binding free energy” value is 0.22 kcal/mol.
ATAGTCACGTGTGGTG: the “relative binding free energy” value turned out to be 0.09 kcal/mol.
Turning to GTTTGCACGTGTATAT, the “relative binding free energy” value was determined as 0 kcal/mol.
As for TTGGTCACGTGAGCTA, the “relative binding free energy” value worked out at 0.26 kcal/mol.
Take GTAAACACGTGTAGTG: the “relative binding free energy” value was -0.02 kcal/mol.
For TGATGCACGTGGTAGC, the “relative binding free energy” value was -0.01 kcal/mol.
In the case of CGTGACACGTGTGGAT, the “relative binding free energy” value was -0.12 kcal/mol.
As for TAATACACGTGTGGGC, the “relative binding free energy” value is 0.15 kcal/mol.
For TTTGTCACGTGACAGT, the “relative binding free energy” value was found to be 0.24 kcal/mol.
To ATTCTCACGTGTAGGG belongs 0.16 kcal/mol; to TTATTCACGTGTTGGT, 0.33 kcal/mol; to GAAGTCACGTGTCGGT, 0.22 kcal/mol.
With GCGTACACGTGGTATG, the “relative binding free energy” value was determined as 0.1 kcal/mol.
As for CGCGTCACGTGTGAGG, the “relative binding free energy” value is 0.07 kcal/mol.
For the sequence TCTGGCACGTGGGTTG, the “relative binding free energy” value is -0.11 kcal/mol.
As to TGGTTCACGTGATGCT, the “relative binding free energy” value was found to be 0.31 kcal/mol.
To GTTCTCACGTGTGTTG belongs 0.13 kcal/mol; to TACTACACGTGTGGTG, -0.08 kcal/mol; to CTTGACACGTGTTTAG, -0.05 kcal/mol.
Consider TTTTCCACGTGCGTGA, for which the “relative binding free energy” value was 0.05 kcal/mol.
For the sequence ATCGTCACGTGAGGCG, the “relative binding free energy” value turned out to be 0.33 kcal/mol.
In the case of AGCGTCACGTGACGGG, the “relative binding free energy” value was 0.34 kcal/mol.
As for GATGTCACGTGCGTGA, the “relative binding free energy” value was 0.1 kcal/mol.
As for TAAAACACGTGAATGG, the “relative binding free energy” value was 0.4 kcal/mol.
Take TGACACACGTGGGTGT: the “relative binding free energy” value is -0.23 kcal/mol.
As for GGTATCACGTGTGTTG, the “relative binding free energy” value was 0.15 kcal/mol.
For the sequence TATCGCACGTGAGGTT, the “relative binding free energy” value turned out to be 0.18 kcal/mol.
As to ATTGTCACGTGCTGGG, the “relative binding free energy” value is 0.13 kcal/mol.
Turning to GTATACACGTGGGGCG, the “relative binding free energy” value is -0.13 kcal/mol.
Consider GGCGGCACGTGTGCAG, for which the “relative binding free energy” value turned out to be 0.01 kcal/mol.
Take GTGTGCACGTGGTGCG: the “relative binding free energy” value was -0.13 kcal/mol.
As to CTTGTCACGTGTTGGT, the “relative binding free energy” value was 0.18 kcal/mol.
Take CTTGCCACGTGTGGTT: the “relative binding free energy” value is -0.12 kcal/mol.
As for ACGGTCACGTGGTTGA, the “relative binding free energy” value came to 0.05 kcal/mol.
For TAAGTCACGTGGGCTT, the “relative binding free energy” value was -0.1 kcal/mol.
For the sequence ATCTACACGTGGTTAT, the “relative binding free energy” value is 0.1 kcal/mol.
To GTTAACACGTGCGGTA belongs -0.01 kcal/mol.
On to CGTCACACGTGTAGGT, for which the “relative binding free energy” value amounted to 0.13 kcal/mol.
Regarding ATCGGCACGTGTGTGA, the “relative binding free energy” value was 0.05 kcal/mol.
Turning to TGGGACACGTGAAATT, the “relative binding free energy” value worked out at 0.39 kcal/mol.
Consider TATTGCACGTGGAGCT, for which the “relative binding free energy” value was 0 kcal/mol.
On to GCTTGCACGTGGTGTG, for which the “relative binding free energy” value is -0.01 kcal/mol.
Turning to GGTGTCACGTGGTAAT, the “relative binding free energy” value was 0.12 kcal/mol.
As for TCGGGCACGTGGGGAT, the “relative binding free energy” value is -0.16 kcal/mol.
Consider GGCAACACGTGGTGTT, for which the “relative binding free energy” value was -0.04 kcal/mol.
As to TTGTACACGTGTAGCT, the “relative binding free energy” value was -0.04 kcal/mol.
In the case of CGATTCACGTGGAGGG, the “relative binding free energy” value came to 0.17 kcal/mol.
To GGTTGCACGTGAGGGG belongs 0.3 kcal/mol; to TTATGCACGTGGAGCT, 0.11 kcal/mol.
GGTGGCACGTGGTAAG: the “relative binding free energy” value was -0.01 kcal/mol.
For CCTGTCACGTGTATGG, the “relative binding free energy” value is 0.12 kcal/mol.
For GTATTCACGTGGGATG, the “relative binding free energy” value stood at 0.17 kcal/mol.
On to AGTTGCACGTGCTTAT, for which the “relative binding free energy” value is -0.13 kcal/mol.
Turning to TATGTCACGTGTCTTG, the “relative binding free energy” value came to 0.17 kcal/mol.
To GGAGGCACGTGGTACG belongs -0.09 kcal/mol; to AAGTTCACGTGTGTAT, 0.27 kcal/mol; to TGTACCACGTGAAGGT, 0.12 kcal/mol.
To TTTGACACGTGTAGTT belongs 0.15 kcal/mol.
To CTTCACACGTGTGTGG belongs -0.04 kcal/mol.
Consider GTATTCACGTGGAGAG, for which the “relative binding free energy” value is 0.15 kcal/mol.
Turning to CGAGGCACGTGGTGTT, the “relative binding free energy” value is -0.09 kcal/mol.
To TAACACACGTGGTGTT belongs -0.08 kcal/mol; to GGGACCACGTGAGGGA, 0.14 kcal/mol; to GAAAGCACGTGGGTAG, -0.19 kcal/mol.
To TTTTACACGTGGATTC belongs 0.14 kcal/mol.
To GGAGTCACGTGAGGAA belongs 0.34 kcal/mol; to AGTCTCACGTGAGTGT, 0.43 kcal/mol.
For the sequence TTTGGCACGTGGACGC, the “relative binding free energy” value is -0.1 kcal/mol.
Turning to TAGTACACGTGGTTGT, the “relative binding free energy” value is 0.05 kcal/mol.
In the case of CTTATCACGTGGGGAT, the “relative binding free energy” value was -0.02 kcal/mol.
Turning to ATATACACGTGGGGCA, the “relative binding free energy” value is -0.1 kcal/mol.
Regarding TTTGGCACGTGTGTAA, the “relative binding free energy” value was -0.08 kcal/mol.
On to TGCGTCACGTGGGACG, for which the “relative binding free energy” value is 0.01 kcal/mol.
Turning to ATGGTCACGTGGTGCG, the “relative binding free energy” value was -0.12 kcal/mol.
With TTTGGCACGTGGTCGA, the “relative binding free energy” value was -0.2 kcal/mol.
Take TTTTCCACGTGCTTTT: the “relative binding free energy” value is 0.14 kcal/mol.
To ATGTTCACGTGAAGTT belongs 0.25 kcal/mol; to TGTAACACGTGGTCGA, -0.02 kcal/mol.
In the case of GGGTTCACGTGTGTGA, the “relative binding free energy” value was 0.3 kcal/mol.
To TAAAGCACGTGGTGAG belongs -0.05 kcal/mol.
To GGTAACACGTGTGATT belongs -0.05 kcal/mol.
As to ATGGGCACGTGCATTT, the “relative binding free energy” value was -0.26 kcal/mol.
With AGTGCCACGTGGATGA, the “relative binding free energy” value was -0.02 kcal/mol.
Take GTGTGCACGTGCGTAT: the “relative binding free energy” value was -0.11 kcal/mol.
With CGACGCACGTGATGGG, the “relative binding free energy” value came to 0.21 kcal/mol.
